Reference: a collection of fitness landscapes (doi:10.1126/science.1257360)
The list shows a part of the results.

B1: PhoQ; a variant is named by its letters at X, in order, P23837 (parent)
chain: MKKLLRLFFPLSLRVRFLLATAAVVLVLSLAYGMVALIGYSVSFDKTTFRLLRGESNLFYTLAKWENNKLHVELPENIDKQSPTMTLIYDENGQLLWAQRDVPWLMKMIQPDWLKSNGFHEIEADVNDTSLLLSGDHSIQQQLQEVREDDDDAEMTHSVAVNVYPATSRMPKLTIVVVDTIPVELKSSYMVWSWFIYVLSANLLLVIPLLWVAAWWSLRPIEALAKEVRELEEHNRELLNPATTRELTSLVRNLNRLLKSERERYDKYRTTLTDLTHSLKTPLXXLQXXLRSLRSEKMSVSDAEPVMLEQISRISQQIGYYLHRASMRGGTLLSRELHPVAPLLDNLTSALNKVYQRKGVNISLDISPEISFVGEQNDFVEVMGNVLDNACKYCLEFVEISARQTDEHLYIVVEDDGPGIPLSKREVIFDRGQRVDTLRPGQGVGLAVAREITEQYEGKIVAGESMLGGARMEVIFGRQHSAPKDE

Variants of: B1
Test: enrichment ratio after two sorts for PhoP signalling (ratio (wild type AVST 3.29)); higher = more functional
Settings: with PhoP (E. coli)

Variant | enrichment ratio
KDMF | ≤ 0.25
MKVG | ≤ 0.25
PQMN | ≤ 0.25
MMDH | ≤ 0.25
PENE | ≤ 0.25
HYIG | ≤ 0.25
QYLA | ≤ 0.25
KTFS | ≤ 0.25
VGGA | ≤ 0.25
KHRK | ≤ 0.25
YAFR | ≤ 0.25
IPAM | ≤ 0.25
TPCI | ≤ 0.25
MRHE | ≤ 0.25
VDKG | ≤ 0.25
NILH | ≤ 0.25
ASLF | 12.2
KKWS | ≤ 0.25
PWTF | ≤ 0.25
GKNY | ≤ 0.25
CIAF | ≤ 0.25
AKNA | ≤ 0.25
YMTK | ≤ 0.25
VGWK | ≤ 0.25
WFEW | ≤ 0.25
HNKT | ≤ 0.25

Variant | enrichment ratio
PDEN | ≤ 0.25
VYDP | ≤ 0.25
EATA | ≤ 0.25
DNQL | 1.14
TQKY | ≤ 0.25
LENA | ≤ 0.25
NNAD | ≤ 0.25
YEML | ≤ 0.25
LMVH | ≤ 0.25
IMIH | ≤ 0.25
IDAW | ≤ 0.25
WKVF | ≤ 0.25
SMCS | 10.4
SWIE | ≤ 0.25
QITF | ≤ 0.25
FIPN | ≤ 0.25
HFDR | ≤ 0.25
GKVT | ≤ 0.25
LHED | ≤ 0.25
LWYQ | ≤ 0.25
WKPI | ≤ 0.25
LKVY | ≤ 0.25
ENAA | ≤ 0.25
HAIW | ≤ 0.25
NYVW | ≤ 0.25
QRQN | ≤ 0.25

Variant | enrichment ratio
QSFM | 0.651
WFCY | ≤ 0.25
NSHF | ≤ 0.25
LRPD | ≤ 0.25
TYEW | ≤ 0.25
VYQQ | ≤ 0.25
RHHD | ≤ 0.25
PWRM | ≤ 0.25
TVIG | ≤ 0.25
MLMI | 0.953
VTDH | ≤ 0.25
AEGV | 17.5
SFTR | ≤ 0.25
DHTT | ≤ 0.25
ILQF | ≤ 0.25
LSIS | ≤ 0.25
NFGY | ≤ 0.25
IAML | 4.62
VPNQ | ≤ 0.25
IPAK | ≤ 0.25
VNYY | ≤ 0.25
YNTI | ≤ 0.25
LHDG | ≤ 0.25
NGPG | ≤ 0.25
IAFR | ≤ 0.25
TKAQ | 1.86

Variant | enrichment ratio
IANY | ≤ 0.25
SKFH | ≤ 0.25
VGVK | ≤ 0.25
AQCE | ≤ 0.25
ADAN | ≤ 0.25
GPWW | ≤ 0.25
TVNW | ≤ 0.25
RFPM | ≤ 0.25
DEHR | ≤ 0.25
VTPV | ≤ 0.25
PEQV | ≤ 0.25
DVKW | ≤ 0.25
IFIN | ≤ 0.25
WAKY | ≤ 0.25
GFKT | ≤ 0.25
SCGS | 7.34
ESDW | ≤ 0.25
ILHW | ≤ 0.25
WKFY | ≤ 0.25
TLSH | 7.97
FLRN | ≤ 0.25
TPWI | ≤ 0.25
LWFQ | ≤ 0.25
ILAT | 0.361
IDYQ | ≤ 0.25
KCPI | ≤ 0.25

Variant | enrichment ratio
NSLL | 3.55
YCKN | ≤ 0.25
WSWY | ≤ 0.25
SWVY | ≤ 0.25
EYPG | ≤ 0.25
PQLD | ≤ 0.25
VKAG | ≤ 0.25
WWRV | ≤ 0.25
VKAV | ≤ 0.25
TFTR | ≤ 0.25
GHPE | ≤ 0.25
HNAN | ≤ 0.25
QVTM | ≤ 0.25
GWLP | ≤ 0.25
IYKA | ≤ 0.25
PVWG | ≤ 0.25
RLHL | ≤ 0.25
LVVW | ≤ 0.25
PKMS | ≤ 0.25
SVEH | ≤ 0.25
ATIM | 19.5
MPWQ | ≤ 0.25
GTHV | ≤ 0.25
QQPM | ≤ 0.25
PEAY | ≤ 0.25
TMFH | ≤ 0.25

Variant | enrichment ratio
RDSL | ≤ 0.25
LPCW | ≤ 0.25
QGYW | ≤ 0.25
HFWH | ≤ 0.25
QEFF | ≤ 0.25
TEPT | ≤ 0.25
QHED | ≤ 0.25
ARVQ | ≤ 0.25
GPWG | ≤ 0.25
VRVY | ≤ 0.25
VREQ | ≤ 0.25
VRYC | ≤ 0.25
FMRT | ≤ 0.25
DMWT | ≤ 0.25
GLWM | ≤ 0.25
PVGL | ≤ 0.25
SAHS | ≤ 0.25
FHDP | ≤ 0.25
ANRF | ≤ 0.25
HRVW | ≤ 0.25
SDGW | ≤ 0.25
MVSN | ≤ 0.25
GFFQ | ≤ 0.25
